# Results published in article PMC4336329 (PLoS ONE, 2015).
# About 14,000 (4.5%) of roughly 310,000 compounds showed an effect of 50% or more. Effects have a minus sign here. Some of the results follow.
# Target: human ether-à-go-go-related gene (hERG) potassium channel (human, UniProt Q12809)
# Experiment: primary screen, population patch clamp on CHO cells stably expressing hERG
# 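Further: peak tail current of the secondary pulse compared with the same well before compound.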
# Sequence of human ether-à-go-go-related gene (hERG) potassium channel (Q12809 whole entry, looked up): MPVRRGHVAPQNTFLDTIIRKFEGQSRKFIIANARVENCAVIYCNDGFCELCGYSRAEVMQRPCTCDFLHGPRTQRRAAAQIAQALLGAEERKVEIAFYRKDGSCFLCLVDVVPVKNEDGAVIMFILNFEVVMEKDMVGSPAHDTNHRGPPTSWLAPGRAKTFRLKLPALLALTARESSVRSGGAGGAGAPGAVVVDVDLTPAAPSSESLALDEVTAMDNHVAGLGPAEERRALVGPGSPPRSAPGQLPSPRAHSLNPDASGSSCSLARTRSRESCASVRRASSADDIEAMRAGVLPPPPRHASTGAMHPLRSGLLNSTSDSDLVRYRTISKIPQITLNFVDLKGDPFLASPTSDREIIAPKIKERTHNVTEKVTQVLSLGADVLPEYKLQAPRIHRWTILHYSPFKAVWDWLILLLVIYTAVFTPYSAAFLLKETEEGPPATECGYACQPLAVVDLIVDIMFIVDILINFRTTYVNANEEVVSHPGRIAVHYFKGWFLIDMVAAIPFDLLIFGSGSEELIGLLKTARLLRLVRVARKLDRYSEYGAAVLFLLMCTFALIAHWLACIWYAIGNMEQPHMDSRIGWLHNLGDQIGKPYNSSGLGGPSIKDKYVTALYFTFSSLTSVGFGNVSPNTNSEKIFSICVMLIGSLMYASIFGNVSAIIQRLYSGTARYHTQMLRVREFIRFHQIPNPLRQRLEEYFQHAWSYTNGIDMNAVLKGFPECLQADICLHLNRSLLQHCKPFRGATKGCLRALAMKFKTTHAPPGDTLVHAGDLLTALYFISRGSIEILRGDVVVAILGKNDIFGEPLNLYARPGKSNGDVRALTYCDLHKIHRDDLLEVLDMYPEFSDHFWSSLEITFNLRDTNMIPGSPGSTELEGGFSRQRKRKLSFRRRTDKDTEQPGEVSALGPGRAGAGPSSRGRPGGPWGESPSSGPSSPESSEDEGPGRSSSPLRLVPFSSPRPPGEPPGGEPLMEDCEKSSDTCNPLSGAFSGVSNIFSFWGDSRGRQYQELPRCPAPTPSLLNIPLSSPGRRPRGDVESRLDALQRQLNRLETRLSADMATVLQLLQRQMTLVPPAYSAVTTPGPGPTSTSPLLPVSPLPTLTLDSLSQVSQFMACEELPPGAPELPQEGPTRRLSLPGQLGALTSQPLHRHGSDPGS
row,SMILES,"hERG current change (%, negative = inhibition) at 10uM"
1,CSCCC(NC(=O)c1ccccc1Cl)C(=O)NCC(c1ccco1)N1CCCCC1 (stereo not drawn),-17.9%
2,CCn1cc(C(=O)N2CC(C)CC(C)C2)c(=O)c2cc(S(=O)(=O)N3CCCC3)ccc21 (stereo not drawn),6.81%
3,COc1ccc(C(=O)NC(=S)Nc2ccc(CN3CCOCC3)cc2)cc1Br,15.6%
4,Cc1c(C(=O)O)sc2nc(/C=C/c3ccccc3OC(F)F)[nH]c(=O)c12,12.7%
5,COc1ccc(CNS(=O)(=O)c2ccc(-c3cc(C)no3)cc2)cc1,4.28%
6,CCOC(=O)c1c(NC(=O)C(=O)N/N=C(\C)c2ccc(OC)cc2)sc2c1CCCCC2,13%
7,COC(=O)c1ccccc1C(=O)c1ccc2c(c1)NC(=O)CO2,7.43%
8,Cn1c(=O)[nH]c(=O)c2c1nc(N1CCNCC1)n2Cc1ccccc1Cl,11.1%
9,COc1ccc2c(COC(=O)CNS(=O)(=O)c3ccc(C)c(C)c3)cc(=O)oc2c1,-57.7%
10,O=C(O)C1=C[C@H](c2cccs2)C[C@H](OCCCCO)O1,7.52%
11,COc1cc(-c2nn3c(COc4ccccc4)nnc3s2)cc(OC)c1OC,14.8%
12,CCCCCCCCCCNC(=O)CCn1[nH]c(=O)c2ccccc2c1=O,12.2%
13,COc1ccc(S(=O)(=O)NCc2ccccc2)cc1,-6.46%
14,Cc1cc(Cl)ccc1OCC(=O)N1C(C)CCCC1C (stereo not drawn),-6.46%
15,COc1ccc(S(=O)(=O)Cc2ccc(C(=O)NCCCN(C)c3ccccc3)o2)cc1,-59.4%
16,O=C(Cn1cc(C(=O)c2cccs2)c2ccccc21)NCC1CCCO1 (stereo not drawn),-2.64%
17,CCCCOc1ccc(CSC(CC(=O)O)C(=O)O)cc1 (stereo not drawn),15.9%
18,Cc1cc(C)nc(/N=C(\N)c2c(O)[nH]c(=O)[nH]c2=O)n1,-1.29%
19,CCCCn1c(N)c(N(CCC(C)C)C(=O)COC(=O)c2sccc2C)c(=O)[nH]c1=O,-5.53%

row,SMILES,"hERG current change (%, negative = inhibition) at 10uM"
1,CNc1nc(-c2ccccc2)[n+](-c2ccc(C)cc2)s1.[Br-],-19.4%
2,CC(C)(C)c1ccc(OCCCNCc2ccccc2)cc1.O=C(O)C(=O)O,-19.5%
3,CC1CCCC(C)N1C(=O)CSc1nc2ncnc(N)c2[nH]1 (stereo not drawn),-9.76%
4,COc1ccc(S(=O)(=O)Nc2ccccc2C(N)=O)cc1OC,10.1%
5,COC(=O)CCC(=O)Nc1cccc(Br)c1,-0.553%
6,CC(=O)C1=C(O)C(=O)N(c2ccc(S(=O)(=O)Nc3nccs3)cc2)C1c1ccc([N+](=O)[O-])cc1 (stereo not drawn),10.6%
7,COc1cc(C(=O)OC2CCOC2=O)c([N+](=O)[O-])cc1OC (stereo not drawn),1.2%
8,CCCCn1c(N)c(N(CCC(C)C)C(=O)CN2C(=O)C3CCCCC3C2=O)c(=O)[nH]c1=O (stereo not drawn),7.21%
9,CC(NCc1cccs1)C(=O)NC1CCCCC1.O=C(O)C(=O)O (stereo not drawn),9.91%
10,COCCn1c(SCC(=O)Nc2ccccc2F)nc2c([nH]c3ccccc32)c1=O,5.97%
11,O=C(Cc1ccccc1)Nc1c(C(=O)N2CCOCC2)cnn1-c1ccccc1,12.4%
12,COC(=O)c1c(C)[nH]c(C(=O)CSc2nnnn2-c2ccccc2)c1C,13.9%
13,CC1=C(C(=O)OCc2ccccc2)C(c2ccccn2)c2c(n(C)c(=O)n(C)c2=O)N1 (stereo not drawn),-8.91%
14,Cc1cccc(C)c1Nc1c(-c2ccccn2)nc2ccccn12,-6.5%
15,Cc1ccc2nc(N(CCCN(C)C)C(=O)c3ccc(Br)s3)sc2c1.Cl,-44.3%
16,CCn1c(=O)c(C(=O)NCc2ccc(F)cc2)c(O)c2ccccc21,9.48%
17,CCN(CC)c1ccc(C=C2C(=O)OC(C)(C(C)(C)C)OC2=O)cc1 (stereo not drawn),-3.06%
18,Cc1ccc(C(=O)COC(=O)c2cnccn2)cc1[N+](=O)[O-],10.8%
19,Cc1ccc(NC(=O)c2nc[nH]c2C(=O)N2CCN(c3ccccc3)CC2)cc1,8.53%

row,SMILES,"hERG current change (%, negative = inhibition) at 10uM"
1,Cc1ccc(-c2csc(-c3c[nH]c4ccccc34)n2)c(C)c1,3.41%
2,CCOC(=O)C1CCN(c2ncnc3c(C)csc23)CC1,-2.92%
3,CCn1c(COc2ccccc2C)nnc1SCC(=O)Nc1cc(C)on1,-2.84%
4,Cc1ccccc1OCC(=O)OC(C)CN1CCN(C)CC1.Cl (stereo not drawn),7.54%
5,CC1(c2nnc(Cc3ccccc3)o2)CC(c2ccc([N+](=O)[O-])cc2)=NO1 (stereo not drawn),-63.2%
6,CC(C)CC(=O)OCC(=O)Nc1ccccc1Sc1ccccc1,-5.5%
7,COc1cc(NC(=O)c2ccc(Cl)cc2)c2ncccc2c1,17.6%
8,CO/N=C/CC(=O)c1ccc(OC)cc1,17.2%
9,CC1(C)C(=O)N(OCc2ccccc2)C(C)(C)C(=O)N1OCc1ccccc1,1.44%
10,C=CCC(=O)N1CCCC(CCC(=O)NCc2ccccc2F)C1 (stereo not drawn),11.4%
11,CCCN1CCC(NCc2cn(C)nc2-c2ccc(Oc3ccccc3)cc2)CC1,-66.1%
12,COc1ccc(-n2nc(C(N)=O)c(O)cc2=O)cc1,26.9%
13,CCC(CC)C(=O)Nc1cccc(C(=O)N2CCCCCC2)c1,-5.69%
14,C=CCSC1=C(C#N)C(c2cccc(OC)c2)CC(=O)N1 (stereo not drawn),-13.2%
15,CSc1nc2ccccc2n1Cc1cccc([N+](=O)[O-])c1,-44.8%
16,COc1ccc2c(C)cc(SC3CCOC3=O)nc2c1 (stereo not drawn),-0.712%
17,COc1ccccc1C(=O)NNC(=O)C1CCN(C(=O)OC(C)(C)C)CC1,8.53%
18,CCOC(=O)C1=C(C)N(CCO)C(=O)NC1c1ccccc1 (stereo not drawn),-12.2%
19,CSc1nnc2c3c4c(sc3c(=O)n(-c3ccccc3)n12)CC(C)(C)OC4,2.89%
